# Some of the results follow.
# What was measured:
# Assay in all cases: glycan array binding signal (z-score within array); higher = stronger binding
# Settings in all cases: glycan notation: IUPAC condensed, linker removed
# [1] = molecular target: Fuc(a1-2)Gal(b1-4)GlcNAc(b1-3)Gal(b1-4)GlcNAc(b1-2)Man(a1-3)[Fuc(a1-2)Gal(b1-4)GlcNAc(b1-3)Gal(b1-4)GlcNAc(b1-2)Man(a1-6)]Man(b1-4)GlcNAc(b1-4)GlcNAc
# Summary of the method: (§1)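 Columns mapping to the same glycan were averaged after glycan names were converted to IUPAC-condensed notation. The data come from 3228 arrays in the Consortium for Functional Glycomics database, limited to those with an available protein sequence. Binding is reported as a within-array Z-score averaged across arrays of one protein sequence and across linkers.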
# [2] = molecular target: Fuc(a1-2)Gal(b1-4)GlcNAc(b1-3)Gal(b1-4)GlcNAc(b1-3)Gal(b1-4)GlcNAc
# Summary of the method: as §1
# [3] = molecular target: Fuc(a1-2)Gal(b1-4)GlcNAc(b1-3)GalNAc
# Summary of the method: as §1
# [4] = molecular target: Fuc(a1-2)Gal(b1-4)GlcNAc(b1-3)[Fuc(a1-2)Gal(b1-4)GlcNAc(b1-6)]GalNAc
# Summary of the method: as §1
# [5] = molecular target: Fuc(a1-2)Gal(b1-4)GlcNAc(b1-3)[Fuc(a1-3)[Gal(b1-4)]GlcNAc(b1-6)]Gal(b1-4)Glc
# Summary of the method: as §1
# [6] = molecular target: Fuc(a1-2)Gal(b1-4)GlcNAc(b1-6)GalNAc
# Summary of the method: as §1
# [7] = molecular target: Fuc(a1-2)Gal(b1-4)GlcNAc6S
# Summary of the method: as §1
# [8] = molecular target: Fuc(a1-2)Gal(b1-4)[Fuc(a1-3)]GlcNAc
# Summary of the method: as §1
# [9] = molecular target: Fuc(a1-2)Gal(b1-4)[Fuc(a1-3)]GlcNAc(b1-2)Man(a1-3)[Fuc(a1-2)Gal(b1-4)[Fuc(a1-3)]GlcNAc(b1-2)Man(a1-6)]Man(b1-4)GlcNAc(b1-4)[Fuc(a1-6)]GlcNAc
# Summary of the method: as §1
# [10] = molecular target: Fuc(a1-2)Gal(b1-4)[Fuc(a1-3)]GlcNAc(b1-2)[Fuc(a1-2)Gal(b1-4)[Fuc(a1-3)]GlcNAc(b1-4)]Man(a1-3)[Fuc(a1-2)Gal(b1-4)[Fuc(a1-3)]GlcNAc(b1-2)Man(a1-6)]Man(b1-4)GlcNAc(b1-4)GlcNAc
# Summary of the method: as §1
# [11] = molecular target: Fuc(a1-2)Gal(b1-4)[Fuc(a1-3)]GlcNAc(b1-3)Gal(b1-4)[Fuc(a1-3)]GlcNAc
# Summary of the method: as §1
# [12] = molecular target: Fuc(a1-2)Gal(b1-4)[Fuc(a1-3)]GlcNAc(b1-3)Gal(b1-4)[Fuc(a1-3)]GlcNAc(b1-3)Gal(b1-4)[Fuc(a1-3)]GlcNAc
# Summary of the method: as §1
# [13] = molecular target: Fuc(a1-2)Gal(b1-4)[Fuc(a1-3)]GlcNAc(b1-3)GalNAc
# Summary of the method: as §1
# [14] = molecular target: Fuc(a1-2)Gal(b1-4)[Fuc(a1-3)]GlcNAc(b1-3)[Neu5Ac(a2-6)Gal(b1-4)GlcNAc(b1-6)]Gal(b1-4)Glc
# Summary of the method: as §1
# [15] = molecular target: Fuc(a1-2)Gal3S(b1-4)GlcNAc
# Summary of the method: as §1
# [16] = molecular target: Fuc(a1-2)Gal6S(b1-3)GlcNAc
# Summary of the method: as §1
# [17] = molecular target: Fuc(a1-2)Gal6S(b1-3)GlcNAc6S
# Summary of the method: as §1
# Fuc(a1-2)Gal6S(b1-4)Glc = molecular target: Fuc(a1-2)Gal6S(b1-4)Glc
# Summary of the method: as §1
# [18] = molecular target: Fuc(a1-2)Gal6S(b1-4)Glc6S
# Summary of the method: as §1
# Fuc(a1-2)GlcNAc = molecular target: Fuc(a1-2)GlcNAc
# Summary of the method: as §1
# Fuc(a1-2)[Gal(a1-3)]Gal = molecular target: Fuc(a1-2)[Gal(a1-3)]Gal
# Summary of the method: as §1
# [19] = molecular target: Fuc(a1-2)[Gal(a1-3)]Gal(b1-3)GalNAc
# Summary of the method: as §1
# [20] = molecular target: Fuc(a1-2)[Gal(a1-3)]Gal(b1-3)GalNAc(b1-3)Gal(a1-4)Gal(b1-4)Glc
# Summary of the method: as §1
# [21] = molecular target: Fuc(a1-2)[Gal(a1-3)]Gal(b1-3)GlcNAc
# Summary of the method: as §1
# [22] = molecular target: Fuc(a1-2)[Gal(a1-3)]Gal(b1-3)GlcNAc(b1-2)Man(a1-3)[Fuc(a1-2)[Gal(a1-3)]Gal(b1-3)GlcNAc(b1-2)Man(a1-6)]Man(b1-4)GlcNAc(b1-4)GlcNAc
# Summary of the method: as §1
# [23] = molecular target: Fuc(a1-2)[Gal(a1-3)]Gal(b1-3)GlcNAc(b1-2)Man(a1-3)[Fuc(a1-2)[Gal(a1-3)]Gal(b1-3)GlcNAc(b1-2)Man(a1-6)]Man(b1-4)GlcNAc(b1-4)[Fuc(a1-6)]GlcNAc
# Summary of the method: as §1
# [24] = molecular target: Fuc(a1-2)[Gal(a1-3)]Gal(b1-3)GlcNAc(b1-3)GalNAc
# Summary of the method: as §1
# [25] = molecular target: Fuc(a1-2)[Gal(a1-3)]Gal(b1-3)GlcNAc(b1-6)GalNAc
# Summary of the method: as §1
# [26] = molecular target: Fuc(a1-2)[Gal(a1-3)]Gal(b1-4)Glc
# Summary of the method: as §1
# [27] = molecular target: Fuc(a1-2)[Gal(a1-3)]Gal(b1-4)GlcNAc
# Summary of the method: as §1
# [28] = molecular target: Fuc(a1-2)[Gal(a1-3)]Gal(b1-4)GlcNAc(b1-2)Man
# Summary of the method: as §1
# [29] = molecular target: Fuc(a1-2)[Gal(a1-3)]Gal(b1-4)GlcNAc(b1-2)Man(a1-3)[Fuc(a1-2)[Gal(a1-3)]Gal(b1-4)GlcNAc(b1-2)Man(a1-6)]Man(b1-4)GlcNAc(b1-4)GlcNAc
# Summary of the method: as §1
# [30] = molecular target: Fuc(a1-2)[Gal(a1-3)]Gal(b1-4)GlcNAc(b1-2)Man(a1-3)[Fuc(a1-2)[Gal(a1-3)]Gal(b1-4)GlcNAc(b1-2)Man(a1-6)]Man(b1-4)GlcNAc(b1-4)[Fuc(a1-6)]GlcNAc
# Summary of the method: as §1
# [31] = molecular target: Fuc(a1-2)[Gal(a1-3)]Gal(b1-4)GlcNAc(b1-3)GalNAc
# Summary of the method: as §1
# [32] = molecular target: Fuc(a1-2)[Gal(a1-3)]Gal(b1-4)GlcNAc(b1-3)[Fuc(a1-2)[Gal(a1-3)]Gal(b1-4)GlcNAc(b1-6)]GalNAc
# Summary of the method: as §1
# [33] = molecular target: Fuc(a1-2)[Gal(a1-3)]Gal(b1-4)GlcNAc(b1-6)GalNAc
# Summary of the method: as §1
# [34] = molecular target: Fuc(a1-2)[Gal(a1-3)]Gal(b1-4)[Fuc(a1-3)]Glc
# Summary of the method: as §1
# [35] = molecular target: Fuc(a1-2)[Gal(a1-3)]Gal(b1-4)[Fuc(a1-3)]GlcNAc
# Summary of the method: as §1
# [36] = molecular target: Fuc(a1-2)[Gal(a1-3)]Gal(b1-4)[Fuc(a1-3)]GlcNAc(b1-3)GalNAc
# Summary of the method: as §1
# [37] = molecular target: Fuc(a1-2)[Gal(a1-4)]Gal(b1-4)GlcNAc
# Summary of the method: as §1
# [38] = molecular target: Fuc(a1-2)[GalNAc(a1-3)]Gal
# Summary of the method: as §1
# [39] = molecular target: Fuc(a1-2)[GalNAc(a1-3)]Gal(b1-3)GalNAc(a1-3)[Fuc(a1-2)]Gal(b1-4)GlcNAc
# Summary of the method: as §1
# [40] = molecular target: Fuc(a1-2)[GalNAc(a1-3)]Gal(b1-3)GalNAc(b1-3)Gal(a1-4)Gal(b1-4)Glc
# Summary of the method: as §1
# [41] = molecular target: Fuc(a1-2)[GalNAc(a1-3)]Gal(b1-3)GlcNAc
# Summary of the method: as §1
# [42] = molecular target: Fuc(a1-2)[GalNAc(a1-3)]Gal(b1-3)GlcNAc(b1-2)Man(a1-3)[Fuc(a1-2)[GalNAc(a1-3)]Gal(b1-3)GlcNAc(b1-2)Man(a1-6)]Man(b1-4)GlcNAc(b1-4)GlcNAc
# Summary of the method: as §1
binder,measurement,setting,value
"UDA (Urtica dioica), P11218 (protein) MMMRFLSAVVIMSSAMAVGLVSAQRCGSQGGGGTCPALWCCSIWGWCGDSEPYCGRTCENKCWSGERSDHRCGAAVGNPPCGQDRCCSVHGWCGGGNDYCSGSKCQYRCSSSVRGPRVALSGNSTANSIGNVVVTEPLFDQMFSHRKDCPSQGFYSYHSFLVAAESFPAFGTIGDVATRKREVAAFLAHISQATSGERSDVENPHAWGLCHINTTTVTENDFCTSSDWPCAAGKKYSPRGPIQLTHNFNYGLAGQAIGEDLIQNPDLVEKDPIISFKTALWFWMSQHDNKPSCHDIVLNANSAANRIPNKGVIGNIISRAFGHDDFAVRSSSIGFYKRYCDMLGVSYGHDLKYWFDNTPSSEFQRIQMRVAA",glycan array binding signal (z-score),[1],-0.082
same,glycan array binding signal (z-score),[2],0.359
same,glycan array binding signal (z-score),[3],-0.175
same,glycan array binding signal (z-score),[4],-0.18
same,glycan array binding signal (z-score),[5],-0.172
same,glycan array binding signal (z-score),[6],-0.173
same,glycan array binding signal (z-score),[7],-0.062
same,glycan array binding signal (z-score),[8],-0.169
same,glycan array binding signal (z-score),[9],-0.168
same,glycan array binding signal (z-score),[10],-0.16
same,glycan array binding signal (z-score),[11],-0.177
same,glycan array binding signal (z-score),[12],-0.17
same,glycan array binding signal (z-score),[13],-0.159
same,glycan array binding signal (z-score),[14],-0.183
same,glycan array binding signal (z-score),[15],-0.177
same,glycan array binding signal (z-score),[16],-0.184
same,glycan array binding signal (z-score),[17],-0.178
same,glycan array binding signal (z-score),Fuc(a1-2)Gal6S(b1-4)Glc,-0.178
same,glycan array binding signal (z-score),[18],-0.173
same,glycan array binding signal (z-score),Fuc(a1-2)GlcNAc,-0.253
same,glycan array binding signal (z-score),Fuc(a1-2)[Gal(a1-3)]Gal,-0.181
same,glycan array binding signal (z-score),[19],-0.178
same,glycan array binding signal (z-score),[20],-0.179
same,glycan array binding signal (z-score),[21],-0.167
same,glycan array binding signal (z-score),[22],-0.16
same,glycan array binding signal (z-score),[23],-0.152
same,glycan array binding signal (z-score),[24],-0.176
same,glycan array binding signal (z-score),[25],-0.177
same,glycan array binding signal (z-score),[26],-0.168
same,glycan array binding signal (z-score),[27],-0.05
same,glycan array binding signal (z-score),[28],-0.179
same,glycan array binding signal (z-score),[29],-0.157
same,glycan array binding signal (z-score),[30],-0.165
same,glycan array binding signal (z-score),[31],-0.178
same,glycan array binding signal (z-score),[32],-0.178
same,glycan array binding signal (z-score),[33],-0.184
same,glycan array binding signal (z-score),[34],-0.166
same,glycan array binding signal (z-score),[35],-0.169
same,glycan array binding signal (z-score),[36],-0.172
same,glycan array binding signal (z-score),[37],-0.178
same,glycan array binding signal (z-score),[38],-0.183
same,glycan array binding signal (z-score),[39],-0.174
same,glycan array binding signal (z-score),[40],-0.183
same,glycan array binding signal (z-score),[41],-0.172
same,glycan array binding signal (z-score),[42],-0.167
